# Measurements: the supplement of paper PMC8728848
# The other results are listed elsewhere or left out.
# B1: PFL (Pseudomonas fluorescens) (protein)
# chain: MSKYAVANQWGGSSAPWHPGGTWVLGARDNQNVVAIEIKSGDGGKSFTGTMTYAGEGPIGFKAQRTGQNQYNVENQWGGNDAPWHPGGKWVIGGRDNQNVIALSVTSSDGGKNLSGTNTYANEGPIGFRGQIE
# What was measured:
# Assay in all cases: glycan array binding signal (z-score within array); higher = stronger binding
# Settings in all cases: glycan notation: IUPAC condensed, linker removed
# [1] = molecular target: Gal(b1-4)GlcNAc(b1-3)Gal(b1-4)GlcNAc(b1-2)Man(a1-3)[Gal(b1-4)GlcNAc(b1-3)Gal(b1-4)GlcNAc(b1-2)Man(a1-6)]Man(b1-4)GlcNAc(b1-4)[Fuc(a1-6)]GlcNAc
# Summary of the method: (§1)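 Arrays were curated from the Consortium for Functional Glycomics database, 3228 in total, and kept only where the protein sequence was available. Binding is expressed as a within-array Z-score. This score was averaged across arrays of the same protein sequence at different concentrations or buffers and across linkers, and negative values can be read as non-binding.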
# [2] = molecular target: Gal(b1-4)GlcNAc(b1-3)Gal(b1-4)GlcNAc(b1-2)[Gal(b1-4)GlcNAc(b1-3)Gal(b1-4)GlcNAc(b1-6)]Man(a1-6)[Gal(b1-4)GlcNAc(b1-3)Gal(b1-4)GlcNAc(b1-2)Man(a1-3)]Man(b1-4)GlcNAc(b1-4)GlcNAc
# Summary of the method: as §1
# [3] = molecular target: Gal(b1-4)GlcNAc(b1-3)Gal(b1-4)GlcNAc(b1-2)[Gal(b1-4)GlcNAc(b1-3)Gal(b1-4)GlcNAc(b1-6)]Man(a1-6)[Gal(b1-4)GlcNAc(b1-3)Gal(b1-4)GlcNAc(b1-2)Man(a1-3)]Man(b1-4)GlcNAc(b1-4)[Fuc(a1-6)]GlcNAc
# Summary of the method: as §1
# [4] = molecular target: Gal(b1-4)GlcNAc(b1-3)Gal(b1-4)GlcNAc(b1-3)Gal(b1-4)GlcNAc
# Summary of the method: as §1
# [5] = molecular target: Gal(b1-4)GlcNAc(b1-3)Gal(b1-4)GlcNAc(b1-3)Gal(b1-4)GlcNAc(b1-2)Man(a1-3)[Gal(b1-4)GlcNAc(b1-3)Gal(b1-4)GlcNAc(b1-3)Gal(b1-4)GlcNAc(b1-2)Man(a1-6)]Man(b1-4)GlcNAc(b1-4)GlcNAc
# Summary of the method: as §1
# [6] = molecular target: Gal(b1-4)GlcNAc(b1-3)Gal(b1-4)GlcNAc(b1-3)Gal(b1-4)GlcNAc(b1-2)Man(a1-3)[Gal(b1-4)GlcNAc(b1-3)Gal(b1-4)GlcNAc(b1-3)Gal(b1-4)GlcNAc(b1-2)Man(a1-6)]Man(b1-4)GlcNAc(b1-4)[Fuc(a1-6)]GlcNAc
# Summary of the method: as §1
# [7] = molecular target: Gal(b1-4)GlcNAc(b1-3)Gal(b1-4)GlcNAc(b1-3)Gal(b1-4)GlcNAc(b1-2)[Gal(b1-4)GlcNAc(b1-3)Gal(b1-4)GlcNAc(b1-3)Gal(b1-4)GlcNAc(b1-6)]Man(a1-6)[Gal(b1-4)GlcNAc(b1-3)Gal(b1-4)GlcNAc(b1-3)Gal(b1-4)GlcNAc(b1-2)Man(a1-3)]Man(b1-4)GlcNAc(b1-4)[Fuc(a1-6)]GlcNAc
# Summary of the method: as §1
# [8] = molecular target: Gal(b1-4)GlcNAc(b1-3)Gal(b1-4)GlcNAc(b1-3)Gal(b1-4)GlcNAc(b1-3)Gal(b1-4)GlcNAc(b1-2)Man(a1-3)[Gal(b1-4)GlcNAc(b1-3)Gal(b1-4)GlcNAc(b1-3)Gal(b1-4)GlcNAc(b1-3)Gal(b1-4)GlcNAc(b1-2)Man(a1-6)]Man(b1-4)GlcNAc(b1-4)GlcNAc
# Summary of the method: as §1
# [9] = molecular target: Gal(b1-4)GlcNAc(b1-3)Gal(b1-4)GlcNAc(b1-3)Gal(b1-4)GlcNAc(b1-3)Gal(b1-4)GlcNAc(b1-2)Man(a1-3)[Gal(b1-4)GlcNAc(b1-3)Gal(b1-4)GlcNAc(b1-3)Gal(b1-4)GlcNAc(b1-3)Gal(b1-4)GlcNAc(b1-2)Man(a1-6)]Man(b1-4)GlcNAc(b1-4)[Fuc(a1-6)]GlcNAc
# Summary of the method: as §1
# [10] = molecular target: Gal(b1-4)GlcNAc(b1-3)Gal(b1-4)GlcNAc(b1-3)Gal(b1-4)GlcNAc(b1-3)Gal(b1-4)GlcNAc(b1-2)[Gal(b1-4)GlcNAc(b1-3)Gal(b1-4)GlcNAc(b1-3)Gal(b1-4)GlcNAc(b1-3)Gal(b1-4)GlcNAc(b1-6)]Man(a1-6)[Gal(b1-4)GlcNAc(b1-3)Gal(b1-4)GlcNAc(b1-3)Gal(b1-4)GlcNAc(b1-3)Gal(b1-4)GlcNAc(b1-2)Man(a1-3)]Man(b1-4)GlcNAc(b1-4)[Fuc(a1-6)]GlcNAc
# Summary of the method: as §1
# [11] = molecular target: Gal(b1-4)GlcNAc(b1-3)Gal(b1-4)GlcNAc(b1-3)Gal(b1-4)GlcNAc(b1-3)Gal(b1-4)GlcNAc(b1-3)Gal(b1-4)GlcNAc(b1-2)Man(a1-3)[Gal(b1-4)GlcNAc(b1-3)Gal(b1-4)GlcNAc(b1-3)Gal(b1-4)GlcNAc(b1-3)Gal(b1-4)GlcNAc(b1-3)Gal(b1-4)GlcNAc(b1-2)Man(a1-6)]Man(b1-4)GlcNAc(b1-4)GlcNAc
# Summary of the method: as §1
# [12] = molecular target: Gal(b1-4)GlcNAc(b1-3)Gal(b1-4)GlcNAc(b1-3)Gal(b1-4)GlcNAc(b1-3)Gal(b1-4)GlcNAc(b1-3)Gal(b1-4)GlcNAc(b1-2)Man(a1-3)[Gal(b1-4)GlcNAc(b1-3)Gal(b1-4)GlcNAc(b1-3)Gal(b1-4)GlcNAc(b1-3)Gal(b1-4)GlcNAc(b1-3)Gal(b1-4)GlcNAc(b1-2)Man(a1-6)]Man(b1-4)GlcNAc(b1-4)[Fuc(a1-6)]GlcNAc
# Summary of the method: as §1
# [13] = molecular target: Gal(b1-4)GlcNAc(b1-3)Gal(b1-4)GlcNAc(b1-3)Gal(b1-4)GlcNAc(b1-3)Gal(b1-4)GlcNAc(b1-3)Gal(b1-4)GlcNAc(b1-2)[Gal(b1-4)GlcNAc(b1-3)Gal(b1-4)GlcNAc(b1-3)Gal(b1-4)GlcNAc(b1-3)Gal(b1-4)GlcNAc(b1-3)Gal(b1-4)GlcNAc(b1-6)]Man(a1-6)[Gal(b1-4)GlcNAc(b1-3)Gal(b1-4)GlcNAc(b1-3)Gal(b1-4)GlcNAc(b1-3)Gal(b1-4)GlcNAc(b1-3)Gal(b1-4)GlcNAc(b1-2)Man(a1-3)]Man(b1-4)GlcNAc(b1-4)[Fuc(a1-6)]GlcNAc
# Summary of the method: as §1
# [14] = molecular target: Gal(b1-4)GlcNAc(b1-3)Gal(b1-4)GlcNAc(b1-3)Gal(b1-4)GlcNAc(b1-3)Gal(b1-4)GlcNAc(b1-3)Gal(b1-4)GlcNAc(b1-3)Gal(b1-4)GlcNAc(b1-2)Man(a1-3)[Gal(b1-4)GlcNAc(b1-3)Gal(b1-4)GlcNAc(b1-3)Gal(b1-4)GlcNAc(b1-3)Gal(b1-4)GlcNAc(b1-3)Gal(b1-4)GlcNAc(b1-3)Gal(b1-4)GlcNAc(b1-2)Man(a1-6)]Man(b1-4)GlcNAc(b1-4)GlcNAc
# Summary of the method: as §1
# [15] = molecular target: Gal(b1-4)GlcNAc(b1-3)Gal(b1-4)GlcNAc(b1-3)GalNAc
# Summary of the method: as §1
# [16] = molecular target: Gal(b1-4)GlcNAc(b1-3)Gal(b1-4)GlcNAc(b1-3)[Gal(b1-4)GlcNAc(b1-3)Gal(b1-4)GlcNAc(b1-6)]GalNAc
# Summary of the method: as §1
# [17] = molecular target: Gal(b1-4)GlcNAc(b1-3)Gal(b1-4)GlcNAc(b1-6)[Gal(b1-3)]GalNAc
# Summary of the method: as §1
# [18] = molecular target: Gal(b1-4)GlcNAc(b1-3)Gal(b1-4)[Fuc(a1-3)]GlcNAc(b1-3)Gal(b1-4)[Fuc(a1-3)]GlcNAc
# Summary of the method: as §1
# [19] = molecular target: Gal(b1-4)GlcNAc(b1-3)GalNAc
# Summary of the method: as §1
# [20] = molecular target: Gal(b1-4)GlcNAc(b1-3)[Fuc(a1-3)GlcNAc(b1-6)]Gal(b1-4)Glc
# Summary of the method: as §1
# [21] = molecular target: Gal(b1-4)GlcNAc(b1-3)[Gal(b1-4)GlcNAc(b1-6)]Gal(b1-4)GlcNAc
# Summary of the method: as §1
# [22] = molecular target: Gal(b1-4)GlcNAc(b1-3)[GlcNAc(b1-6)]Gal(b1-4)GlcNAc
# Summary of the method: as §1
binder,measurement,setting,value
B1,glycan array binding signal (z-score),[1],-0.034
same,glycan array binding signal (z-score),[2],0.001
same,glycan array binding signal (z-score),[3],-0.1
same,glycan array binding signal (z-score),[4],-0.112
same,glycan array binding signal (z-score),[5],-0.101
same,glycan array binding signal (z-score),[6],-0.099
same,glycan array binding signal (z-score),[7],-0.107
same,glycan array binding signal (z-score),[8],-0.111
same,glycan array binding signal (z-score),[9],-0.103
same,glycan array binding signal (z-score),[10],-0.103
same,glycan array binding signal (z-score),[11],-0.104
same,glycan array binding signal (z-score),[12],0.054
same,glycan array binding signal (z-score),[13],-0.075
same,glycan array binding signal (z-score),[14],-0.098
same,glycan array binding signal (z-score),[15],-0.111
same,glycan array binding signal (z-score),[16],-0.108
same,glycan array binding signal (z-score),[17],-0.105
same,glycan array binding signal (z-score),[18],-0.114
same,glycan array binding signal (z-score),[19],-0.116
same,glycan array binding signal (z-score),[20],-0.116
same,glycan array binding signal (z-score),[21],-0.112
same,glycan array binding signal (z-score),[22],-0.113
